According to PubChem BioAssay AID504466 (National Center for Advancing Translational Sciences (NCATS), 2011):
Among all 330,000 compounds or so, about 4,200 (1.3%) were called active. The inconclusive results got no clear call from the source; some entries with a clear call stand among them for comparison. Calls come from the whole dose curve; as a rule, active = well fitted activation curve with a large enough effect; inconclusive = small, poorly fitted or top-dose-only effect; inactive = no such curve, though single readings can be large or run the other way. A potency beside an inconclusive call is a rough fit, not a confirmed value.

Assay: qHTS screen for small molecules that induce genotoxicity in human embryonic kidney (HEK293T) cells expressing luciferase-tagged ELG1; note: nearly all actives have a fitted effect of over 60% in size; for activity change, positive = activation: % of control where 0% means no effect
Conditions: HEK293T ELG1-luciferase reporter, luminescence, 16 h; series mostly up to 46 µM; activity change, positive = activation: at the top concentration
How it was run: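 16 hr compound incubation (37 °C, 5% CO2) of HEK293T cells carrying luciferase-tagged ELG1; luciferase then measured by ONE-Glo luminescence after 30 min at RT.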
Potency is the fitted concentration of half-maximal effect; tags give direction and shape of the fitted curve.

SMILES	activity change, positive = activation	Potency
Cc1ccccc1Oc1ccc(NC(=O)C2CC=CCC2C(=O)O)cc1 (configuration not stated)	inactive: -3.34%	
CN(C(=O)CSc1nnc(-c2ccco2)o1)C1CCCCC1		inconclusive: 16.4 µM [activator, partial curve, poor fit]
Cc1cc(C)n(-c2nc(SCC(=O)NCC3CCCO3)c3c4c(sc3n2)CCCC4)n1 (configuration not stated)	inactive: -0.435%	
Cc1ccc(S(=O)(=O)NCC(=O)NNC(=O)c2ccccc2Cl)cc1C	inactive: 0.391%	
CC1(C)Cc2nc3sc(C(=O)NCCCO)c(N)c3cc2CO1		inconclusive: 23.1 µM [activator, partial curve, poor fit]
Cc1cnc(-c2nnc(N(C)C(=O)c3cccnc3)s2)cn1	inactive: 14.7%	
C(=C\n1nnc2ccccc21)/c1ccccn1		inconclusive: 4.61 µM [activator, partial curve]
N#CC(C#N)=Cc1ccc(NC(=O)c2ccc(Br)cc2)cc1		inconclusive: 16.4 µM [activator, single point]
O=C1CC(c2cc(-c3ccccc3)no2)C1		inconclusive: 11.6 µM [activator, partial curve]
N/C(=N/OC(=O)c1ccccc1Cl)c1nonc1N		inconclusive: 23.1 µM [activator, single point]
O=C(N/N=C/c1cc(O)ccc1Br)c1cccnc1		inconclusive: 5.8 µM [activator, single point]
CCc1ccc(C(=O)N/N=C/c2ccncc2)s1		inconclusive: 18.3 µM [activator, single point]
Cc1ccccc1NC(=O)Nc1ccc2c(c1)OCO2		inconclusive: 6.51 µM [activator, partial curve]
COCC(C)NC(=O)CCc1nnc(C2(c3ccc(Cl)cc3)CCC2)o1 (configuration not stated)		inconclusive: 20.6 µM [activator, partial curve, poor fit]
O=C(Nc1ccccc1)OCCOc1ccccc1Br		inconclusive: 18.3 µM [activator, partial curve, poor fit]
N=C1C(c2nc3ccccc3s2)=C(O)CN1NC(=O)c1ccccc1[N+](=O)[O-]		inconclusive: 16.4 µM [activator, partial curve, poor fit]
CCCCC(=O)Nc1ccc2c(c1)oc1ccccc12		inconclusive: 18.4 µM [activator, partial curve]
Cn1ccnc1SCC(=O)Nc1ccc2c(c1)OCCO2		active: 9.2 µM
O=C(COc1ccc(Cl)cc1)Nc1nnc(-c2ccc3c(c2)CCCC3)o1		inconclusive: 18.4 µM [activator, partial curve, poor fit]
Cn1c(CNc2ccc(O)cc2)nc2ccccc21		inconclusive: 20.6 µM [activator, single point]
COc1ccccc1NC(=O)c1ccc(Br)o1		inconclusive: 23.1 µM [activator, partial curve, poor fit]
CCCCCc1c(C)nc(Nc2ccccc2)[nH]c1=O		inconclusive: 32.6 µM [activator, partial curve, poor fit]
N#CC12COC3(CCCCC3C1(C#N)C#N)OC2=N (configuration not stated)		inconclusive: 23.1 µM [activator, partial curve, poor fit]
CCOC(=O)C1CCCCN1Cc1cccc(C(F)(F)F)c1 (configuration not stated)	inactive: 2.54%	

SMILES	activity change, positive = activation	Potency
CCN1CCN(Cc2ccc(NC(=O)c3ccc(C)c(NC(=O)c4nccn4C)c3)cc2C(F)(F)F)CC1	inactive: -2.36%	
COc1ccccc1NS(=O)(=O)c1ccc(N2CCOCC2)c(N)c1	inactive: -2.95%	
COc1cccc(-c2cc(C(=O)Nc3cccnc3Cl)no2)c1		inconclusive: 10.3 µM [activator, partial curve, poor fit]
COc1cc(/C=N/NC(=O)c2ccc(N3CCCC3=O)cc2)ccc1O		inconclusive: 9.2 µM [activator, partial curve]
CN(C)S(=O)(=O)c1ccc(-c2csc(N/N=C/c3ccc(O)cc3)n2)cc1		inconclusive: 6.51 µM [activator, single point]
CCN1CCN(c2cc(C)c3cc(NC(=O)c4cc(OC)cc(OC)c4)ccc3n2)CC1		inconclusive: 16.4 µM [activator, partial curve, poor fit]
NC(=O)NC(=O)COC(=O)CNS(=O)(=O)c1ccc(F)c(F)c1F	inactive: 0.235%	
COc1ccc(C2Nc3cccc4cccc(c34)N2)cc1Br	inactive: -3.06%	
CC(C)(C)[C@@H]1COC(=O)[C@H](Cc2ccc(F)cc2)C/C=C\C[C@H](CC(=O)N(CCO)Cc2ccccc2)C(=O)N1	inactive: -4.32%	
O=C(Nc1ccc(N2CCN(C(=O)c3ccc(Cl)cc3)CC2)cc1)c1ccc2c(c1)OCCO2	inactive: -28.6%	
COc1ccc(C(=O)NCc2cccnc2)cc1S(=O)(=O)N1CCCc2ccccc21	inactive: -0.427%	
COc1ccc(-c2nc(-c3ccc(Br)o3)no2)cc1		active: 1.16 µM
C/C(=N\NC(=O)c1c(Cl)c(C)nn1C)c1cccc(NC(=O)c2cccc(F)c2)c1	inactive: -16.5%	
CCOc1cc(C(=O)NC(=S)Nc2nc(C)cc(C)n2)cc(OCC)c1OCC	inactive: -1.7%	
COc1ccc(OCc2cc(C(=O)N3CCCC(O)C3)no2)c2ccccc12 (configuration not stated)		inconclusive: 5.17 µM [activator, full curve]
O=C(N/N=C/c1ccccc1)c1[nH]ncc1Br		active: 14.6 µM
COc1cc(C2Nc3ccccc3C(=O)N2c2ccccc2)ccc1O (configuration not stated)		inconclusive: 13 µM [activator, partial curve]
CC(C)C(=O)NC(=S)Nc1sc2c(c1C(N)=O)CCCC2		inconclusive: 18.4 µM [activator, partial curve, poor fit]
O=C(CN1C(=O)NC2(CCCC2)C1=O)N1CCN(c2ccccc2Cl)CC1		inconclusive: 20.6 µM [activator, partial curve, poor fit]
Cc1csc(NC(=O)c2cc3c(s2)CCC3)n1		inconclusive: 1.03 µM [activator, partial curve]
CC(=O)N(O)CCCCCNC(=O)CCC(=O)N(O)CCCCCNC(=O)CCC(=O)N(O)CCCCCN		inconclusive: 25.9 µM [activator, partial curve, poor fit]
O=C(NC1CCCCCCC1)c1c(O)c2ccccc2[nH]c1=O		inconclusive: 1.84 µM [activator, full curve]
O=C(Cn1ncc(Cl)c(Cl)c1=O)N1CCN(S(=O)(=O)c2ccc3ccccc3c2)CC1	inactive: -7.96%	
CCn1c(=O)cc(OCC(=O)NCCCN2CCC(C)CC2)c2ccccc21		active: 16.4 µM

SMILES	activity change, positive = activation	Potency
CNC(=O)c1[nH]cnc1C(=O)Nc1ccccc1OC		inconclusive: 20.6 µM [activator, single point]
CCOC(=O)c1cc2c(=O)c3cc(C)ccc3oc2nc1C		inconclusive: 2.06 µM [activator, full curve]
COc1cccc(NCCC(=O)c2cccc([N+](=O)[O-])c2)c1		inconclusive: 11.6 µM [activator, partial curve]
COC(=O)c1sc(=S)n(-c2ccccc2)c1N		inconclusive: 25.9 µM [activator, partial curve, poor fit]
COC(=O)c1cccc(NC(=O)NC23CC4CC(CC(C4)C2)C3)c1		inconclusive: 4.61 µM [activator, full curve, poor fit]
O=C(c1ccc(OCC2CCCO2)cc1)N1CCc2ccccc2C1 (configuration not stated)		inconclusive: 20.6 µM [activator, partial curve, poor fit]
O=C(c1cc(COc2ccc(F)c(F)c2)on1)N1CCSCC1		inconclusive: 20.6 µM [activator, single point]
CCOc1ccc(NC(=O)c2ccccn2)cc1		inconclusive: 0.517 µM [activator, partial curve]
Nc1nnc(/C=C/c2ccccc2)s1		inconclusive: 18.3 µM [activator, partial curve, poor fit]
COc1cccc(CNS(=O)(=O)c2ccc3c(c2)oc(=O)n3C)c1	inactive: -4.54%	
CCOC(=O)/C=C/C(=O)OCC(=O)N1CCN(C(=O)c2ccco2)CC1	inactive: 1.87%	
Oc1ccc(-c2csc(Nc3ncccn3)n2)c(O)c1		active: 7.3 µM
CN(c1ccccc1)c1nc(N)c([N+](=O)[O-])c(NCc2ccccc2)n1	inactive: 1.21%	
CCOc1ccc2c(c1)nc(SCC(=O)c1cccs1)n2C		inconclusive: 16.4 µM [activator, partial curve, poor fit]
CCOc1ccc(S(=O)(=O)Nc2cccc(C(=O)NCC(c3ccco3)N3CCCC3)c2)cc1 (configuration not stated)	inactive: -0.51%	
CCOC(=O)c1sc(/N=C/Nc2nc(C)c(C(=O)OCC)s2)nc1C		inconclusive: 1.26 µM [activator, single point]
Cc1occc1C(=O)N/N=C/c1ccc(Br)s1		inconclusive: 16.4 µM [activator, partial curve, poor fit]
NC(=O)c1ccccc1NC(=O)CN1CCN(Cc2ccc(Cl)cc2Cl)CC1	inactive: -6.5%	
CC(OC(=O)c1ccccn1)C(=O)Nc1nc(-c2ccc(F)c(F)c2)cs1 (configuration not stated)		inconclusive: 13 µM [activator, partial curve]
Cc1ccc(C(=O)/C=C2\NCCNC2=O)cc1		inconclusive: 5.8 µM [activator, partial curve]
S=C(c1ccc(OCc2ccccc2)cc1)N1CCCC1		inconclusive: 23.1 µM [activator, single point]
Cc1ccc2c(C)c(C(=O)N(C)C(C)c3ccon3)oc2c1C (configuration not stated)		inconclusive: 7.3 µM [activator, partial curve]
O=C(NCCCCCCNC(=O)c1ccccc1O)c1ccccc1O	inactive: -12.4%	
N#Cc1ccsc1NC(=O)c1ccc(Cl)c([N+](=O)[O-])c1	inactive: -1.08%	
